The source gives no read counts; variants with many changes may rest on few reads.
B1: LINE1-full (parent)
chain: UACGUAGGUGGUUUUCCCCUGAUAGUGCUAAGGGGGCCUGGAAGUUUGGACUGGGCAGAGCUCAACACAGCGUGGCAAAGUGGCUGUGGCUAGACUGCCUCUCUGGAUUCCUCGUCACUCAGCAGGGCAUCUCUGAGAGAAAUGCC

Variants of: B1
Test: self-cleavage, relative activity (ratio to wild type); higher = more cleavage; in vitro, sequencing; the parent is a self-cleaving ribozyme
Variant U13C G53U U108C A129G A138G has a self-cleavage of 1.19. For U13C A30G A43G U96C, the self-cleavage was 0. Work on U13C A42G U47C G58A G86A yielded a self-cleavage of 0.12. In the case of U13A A64G U81A U96C C111A, the self-cleavage is reported as 0.02. U13C G58U A129G gave a self-cleavage of 0.11. U13C G49U U96A showed a self-cleavage of 0.06. U13C A78G A94G gave a self-cleavage of 0.39. In the case of U13C A42G A65G, the self-cleavage is reported as 0. U13C A69G C120U gave a self-cleavage of 0.8. Variant U13C U15A U39A has a self-cleavage of 0.53. Work on U12G U115A G144U yielded a self-cleavage of 1.69. For U13C A117C A136G, the self-cleavage was 1.47. For U13A U115C A117C A140G, the self-cleavage was 1.6. U13C A67G A140U gave a self-cleavage of 0.57. Variant U13C A43G U46A has a self-cleavage of 0.77. U13A G58A A67U U100C gave a self-cleavage of 0.03. Variant U13C C38A U104C A140G has a self-cleavage of 0.66. Variant U13C G25A A43G U81A has a self-cleavage of 2.09. Work on U13C A22U G35A U52C yielded a self-cleavage of 1.2. U13C A65U U104C A129U G137A showed a self-cleavage of 0.39. In the case of U13C U20A A22U A136U A140G G144C, the self-cleavage is reported as 1.29. Work on U13C U14A U23C A59G A140U yielded a self-cleavage of 0.32. Work on U13C A57U U115C yielded a self-cleavage of 0. With U13C U20A U73C A121U the self-cleavage was 1.5. With U13C A31G A50G U81A the self-cleavage was 0.8. For U13C U14C A43G U85A A107G A138G A140G, the self-cleavage was 0.4. For U13C C61A A124C, the self-cleavage was 0.07. U13C G89A A121G gave a self-cleavage of 0.08. Work on U13C A69U U100C yielded a self-cleavage of 0.2. In the case of U13C A64U A129G, the self-cleavage is reported as 0.6. U13C A64G U73A A141C gave a self-cleavage of 0.44. With U13A U29A A30G U115C A140G the self-cleavage was 1.02. With U13C A67U A138G the self-cleavage was 0.04. With U13C A22U G36U U115C the self-cleavage was 1.3. U13C A59G U102A U119A showed a self-cleavage of 0. U13C G40A A43G U100C showed a self-cleavage of 1.74. Work on U13C U20C U62C C63G A65U U73A yielded a self-cleavage of 0. With U13C G35A U39A the self-cleavage was 1.32. Variant U13C A107G A142G has a self-cleavage of 1.07. For U13C G60A A65G U119C, the self-cleavage was 0.12. For U13C A59G U91C A138G, the self-cleavage was 0. In the case of U13C A77G G106A U132C, the self-cleavage is reported as 1.58. For U13C A22U U115A, the self-cleavage was 0.32. Work on U13C C28G U47C A107U U112C A117U A129G yielded a self-cleavage of 1.97. Variant U13C A30G U73A U81A A107G U143A has a self-cleavage of 1.88. U13C A42G A65U G74A C98U showed a self-cleavage of 0.07. In the case of U12G U62C A67U U73G U130C A142G, the self-cleavage is reported as 0. With U13A U15C G49A A65U U81A the self-cleavage was 0.17. In the case of U13C G33A A77G, the self-cleavage is reported as 2.22. U13C C37U U119C G139A showed a self-cleavage of 1.52. Work on U13A A67G U81A U134A yielded a self-cleavage of 0.32. U13C A31G G54A gave a self-cleavage of 0.33. U13C U20C C61A A141G gave a self-cleavage of 0.06. Work on U13C A57G G75A yielded a self-cleavage of 0.55. In the case of U13C A77U U130C U134A A140G, the self-cleavage is reported as 1.47. For U13C A77G U115A A117U A136G, the self-cleavage was 1.76. U13C G27U U73G G89A A140G gave a self-cleavage of 0.09. U13C G49U C99U gave a self-cleavage of 0.35. With U13C A50G A67G the self-cleavage was 0. Work on U13C A43G G74A A78G yielded a self-cleavage of 0.93. U13C A79G U109A gave a self-cleavage of 1.1. In the case of U13C A79G U109G, the self-cleavage is reported as 0.57. With U13A U14A A59C U102A the self-cleavage was 0.72. U13A A30G A42G A121G gave a self-cleavage of 0. In the case of U13C A136G A141G, the self-cleavage is reported as 2.35. Work on U13A U20G A22G A67G C68A A121U yielded a self-cleavage of 0.18. For U13A U39A U73C A141G, the self-cleavage was 1.07. Work on U13A A42G U46A U87A yielded a self-cleavage of 0.04. With U13C A59U G88C U109A the self-cleavage was 0.07. Variant U13C C51U U52C A94U U115C has a self-cleavage of 0.85. U13C U20C U115A A136G showed a self-cleavage of 1.7. For U13A A50U U73C, the self-cleavage was 0.73. Work on U13C G27A A94U yielded a self-cleavage of 0.35. U13A U91A U143A gave a self-cleavage of 0.41. Work on U13A A124G U134C A141G yielded a self-cleavage of 2.3. U13C A64U G74C U100C U112C U115C gave a self-cleavage of 1.49. For U13C G33A U62C A78G A79G, the self-cleavage was 0. In the case of U13C U15C A64G U85C, the self-cleavage is reported as 0. With U13C C38U G82A U108C U109C A138G the self-cleavage was 1.72. U13C A43G U81C U112C gave a self-cleavage of 1.84. For U13C A64U C66U U96C A129C, the self-cleavage was 0.07. U13C A77U U115C gave a self-cleavage of 1.73. For U13C A67G G105A, the self-cleavage was 0.47. U13C G83C C99U gave a self-cleavage of 0.16. Variant U13C A59G U119A A140G has a self-cleavage of 0.11. Variant U13C A59G C128A has a self-cleavage of 0.08. U13A A31G U45C showed a self-cleavage of 0.57. With U13C U15C A65G A129G the self-cleavage was 0. U13C C71U U100A showed a self-cleavage of 0.11. U13C G40U U109C gave a self-cleavage of 1.41. Variant U13A A79G U100C has a self-cleavage of 1.92. For U13C G34U A57G A141G, the self-cleavage was 1.41. In the case of U13C U14C G35A U108C U130C, the self-cleavage is reported as 0.42. In the case of U13C C68U A77G U81G, the self-cleavage is reported as 0.04. Variant U12G U109C A121U A136G has a self-cleavage of 0.97. U13C C84U A136G gave a self-cleavage of 0.03. U13C A22C U29C A67C showed a self-cleavage of 0. Work on U13C A64G A92U A142U yielded a self-cleavage of 0. For U13C G35A U102C, the self-cleavage was 0.93. U13A U47C A94G gave a self-cleavage of 0.11. For U13C U20C U46C A124G, the self-cleavage was 1.48. U12G U104C U143A gave a self-cleavage of 1.47. In the case of U12G U62A A77U, the self-cleavage is reported as 0.2. In the case of U13A U26A G74A A140G, the self-cleavage is reported as 0.16. For U13A A43G A138G, the self-cleavage was 0.77. With U13A U15G A117G A141G the self-cleavage was 1.24. With U13C A77G U143A the self-cleavage was 2.12. In the case of U13C A94G U130G, the self-cleavage is reported as 0. Work on U13C C51U U73A A77G yielded a self-cleavage of 2.08. For U13C G40A U47C A57U C133A U134C, the self-cleavage was 0.19. With U13C A121U A142G the self-cleavage was 1.74. Variant U12G U52A C103U has a self-cleavage of 2.02. For U13C A22G U26C A50U A77G A121U, the self-cleavage was 0. In the case of U13C G27A G34U A57G U73A U115C U130C, the self-cleavage is reported as 1.29. With U13C A31C G48A A77G U81C the self-cleavage was 1.84. With U13C G36C C71U A121C U130C A136G the self-cleavage was 1.41. For U13A U96C G106A U119C, the self-cleavage was 0.15. Variant U13C A31U U46C U104C U115G has a self-cleavage of 2.63. In the case of U13C C38U U62A, the self-cleavage is reported as 0.07. Work on U13A A31G U85A U102C U104C yielded a self-cleavage of 0.32. For U13C A42G U47A G89U, the self-cleavage was 0.1. Variant U13C G54A A107G A117C has a self-cleavage of 1.99. U13A A69G G82A showed a self-cleavage of 1.31. U13C A78U A136G gave a self-cleavage of 0.84. U13A U85A U130C gave a self-cleavage of 0.07. U13C U14C G34A U96A U119A A141G U143C gave a self-cleavage of 0.2. U13C A22G A64U gave a self-cleavage of 0.61. With U13A G33U A79G the self-cleavage was 1.18. In the case of U13C A42G C131U, the self-cleavage is reported as 1.55. Work on U13C G80C U119A A124U yielded a self-cleavage of 1.04. U13C G34U U85C U87C U109A G135A gave a self-cleavage of 0.3. Variant U13A U46A C68U C99U has a self-cleavage of 0.03. With U13C U15C G72A the self-cleavage was 1.48. With U13A U26A U52G A67G A77G the self-cleavage was 0. Work on U13A U14A C76U U104C yielded a self-cleavage of 2.3. For U13A U73C U96C, the self-cleavage was 0. With U13C G36U U100C U102C C103U the self-cleavage was 1.54. Work on U13C G106A U132A yielded a self-cleavage of 1.65. Variant U13C A64U A92U U108C has a self-cleavage of 0.59. U13A U45A G48A U91A showed a self-cleavage of 0.25. Variant U13C A69G U81A A140G has a self-cleavage of 0.6. U13A U39A A64G A142G showed a self-cleavage of 0.14. U12G U62C A140G gave a self-cleavage of 0.34. U13C C37A A43G U45C gave a self-cleavage of 0.86. U13C U20G U47A A57U U62A U87C C95U showed a self-cleavage of 0. With U13C C19U A24G A140G the self-cleavage was 1.01. In the case of U13C A57U A65G A140G, the self-cleavage is reported as 0.09. U13C C51U A117C showed a self-cleavage of 1.42. With U13C C68U A142G the self-cleavage was 0.08. In the case of U13C A43G U52C C90U U134A, the self-cleavage is reported as 0.1. U13A G34A A42C A141G gave a self-cleavage of 0.35. With U13A A22G A138G the self-cleavage was 1.02. U13C A22G A77G A94G A142G gave a self-cleavage of 0.97. In the case of U13A U23A A94G U109C C116U, the self-cleavage is reported as 0.15. Work on U12G U102A G144A yielded a self-cleavage of 1.75. In the case of U13C A59U U108C, the self-cleavage is reported as 1.44. U13C A24G G55C U62A gave a self-cleavage of 0.2. In the case of U13C U15C A65U A94C, the self-cleavage is reported as 0.09. U13C U20C A59G U119C showed a self-cleavage of 0. In the case of U13C A42U U73C A94U, the self-cleavage is reported as 0.88. Variant U13C A43G A77G A78G U143C has a self-cleavage of 1.84. In the case of U13C A77U U119C, the self-cleavage is reported as 1.56. Work on U13C G25A A50G U143C yielded a self-cleavage of 0.89. U13A U73A C99U C116U A136G gave a self-cleavage of 0.62. For U12G U109C U130C, the self-cleavage was 1.45. U12G U115C A142U gave a self-cleavage of 1.36. With U13C A50U C95A U109C the self-cleavage was 0.11.

From the RNAGym collection of RNA variant scans (doi:10.7554/elife.90254)
